# According to PubChem BioAssay (Tox21):
# “And” between values parts separate entries of the source, which are not always exact repeats. Equal values may be shown once. Inconclusive results, whose numbers are uncertain, are shown with a selection of clear calls. Where the call is inconclusive, the potency comes from a doubtful curve fit. The source made the active and inactive calls. Calls come from the whole dose curve; as a rule, active = well fitted inhibition curve with a large enough effect in the repeat runs; inconclusive = weak or mixed curves; inactive = no such curve, though single readings can be large or run the other way.
# Target: Cytochrome P450 2C19 (Homo sapiens) (UniProt P33261)
# Test: Cytochrome P450 Family 2 Subfamily C Member 19 (CYP2C19) small molecule antagonists: luciferase reporter qHTS assay (AID 1671197); note: nearly all actives have a fitted effect of over 65% in size
# Conditions: P450-Glo CYP2C19 enzyme, luciferin luminescence, 1 h; series mostly up to 115 µM
# Method in brief: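 Enzyme-substrate mix with proluciferin substrate (P450-Glo CYP2C19 system) preincubated with compounds 10 min at room temperature; NADPH regeneration solution added, 37C for 1 h; detection reagent stops reaction, luminescence read after 20 min. Ketoconazole positive control.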
# % is set by controls: 0 for no effect and ±100 for the full control effect; potency is the fitted concentration of half-maximal effect; tags give direction and shape of the fitted curve.
# UniProt P33261, sequence (P33261 whole entry, looked up): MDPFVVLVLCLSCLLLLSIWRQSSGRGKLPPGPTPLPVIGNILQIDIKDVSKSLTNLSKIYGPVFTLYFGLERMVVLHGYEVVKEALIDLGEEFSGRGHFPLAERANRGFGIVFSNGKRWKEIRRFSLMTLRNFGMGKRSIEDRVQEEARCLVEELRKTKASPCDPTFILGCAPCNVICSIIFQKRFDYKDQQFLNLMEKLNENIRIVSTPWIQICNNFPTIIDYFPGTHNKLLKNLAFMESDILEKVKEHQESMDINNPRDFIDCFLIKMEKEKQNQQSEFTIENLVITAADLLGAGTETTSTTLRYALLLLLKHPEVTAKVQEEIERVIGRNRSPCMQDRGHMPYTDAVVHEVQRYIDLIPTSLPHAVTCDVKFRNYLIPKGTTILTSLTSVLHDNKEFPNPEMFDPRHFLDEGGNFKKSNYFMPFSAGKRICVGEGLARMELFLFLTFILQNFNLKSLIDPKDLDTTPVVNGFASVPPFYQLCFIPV
Structure (SMILES),Potency,"activity change, negative = inhibition"
Cn1cc(C2=C(c3cn(C4CCN(Cc5ccccn5)CC4)c4ccccc34)C(=O)NC2=O)c2ccccc21,"inconclusive: 7.76 µM [inhibitor, partial curve, poor fit]",–
NNC(N)=S,"active: 73.8 µM and inconclusive: 31.7 µM [inhibitor, single point]",–
O=C1c2ccccc2C(=O)c2ccccc21,–,inactive: 10.7% [at 23.6 µM]
CC(C)[C@@H](Nc1ccc(C(F)(F)F)cc1Cl)C(=O)OC(C#N)c1cccc(Oc2ccccc2)c1 (stereo not given in full),active: 10.8 µM,–
OC(c1ccc(Cl)cc1)(c1ccc(Cl)cc1)C(Cl)(Cl)Cl,active: 0.0564 µM,–
C[C@]12C=CC3=C4CCC(=O)C=C4CC[C@H]3[C@@H]1CC[C@@H]2O,"inconclusive: 5.6 µM [inhibitor, full curve, poor fit] and inconclusive: 33.8 µM [inhibitor]",–
O=C1C(Cl)=C(Cl)C(=O)c2ccccc21,active: 7.99 µM and active: 5.64 µM,–
C1=Cc2cccc3cccc1c23,"inconclusive: 31.2 µM [inhibitor, full curve] and inconclusive: 89.4 µM [inhibitor, single point]",–
CCC(C)(C#N)N=NC(C)(C#N)CC (stereo not given),"inconclusive: 71 µM [inhibitor, single point]",–
CC[C@H]1C[C@@H]2C[C@H]3c4[nH]c5ccc(OC)cc5c4CCN(C2)[C@@H]13,"inconclusive: 78.3 µM [inhibitor, single point]",–
